{
  "source": "PubChem BioAssay AID504333",
  "about": "(National Center for Advancing Translational Sciences (NCATS), 2011)",
  "note": "The whole screen tested about 360,000 compounds, of which about 16,000 (4.4%) were called active. The shares of active, inactive and inconclusive entries below differ from those in the screen. The call rests on the fitted dose curve; in most records, active means well fitted inhibition curve with a large enough effect; inconclusive means small, poorly fitted or top-dose-only effect; inactive means no such curve, though single readings can be large or run the other way. Where the call is inconclusive, the potency comes from a doubtful curve fit. On the % scale 0 is the no-effect control and ±100 the full control effect; potency means the concentration at half of the fitted maximal effect; tags describe the fitted curve by direction and shape.",
  "data": [
    {"biological_target": "Bromodomain adjacent to zinc finger domain protein 2B (Homo sapiens) (UniProt Q9UIF8)", "sequence (Q9UIF8 whole entry, looked up, the tested form may be a part)": "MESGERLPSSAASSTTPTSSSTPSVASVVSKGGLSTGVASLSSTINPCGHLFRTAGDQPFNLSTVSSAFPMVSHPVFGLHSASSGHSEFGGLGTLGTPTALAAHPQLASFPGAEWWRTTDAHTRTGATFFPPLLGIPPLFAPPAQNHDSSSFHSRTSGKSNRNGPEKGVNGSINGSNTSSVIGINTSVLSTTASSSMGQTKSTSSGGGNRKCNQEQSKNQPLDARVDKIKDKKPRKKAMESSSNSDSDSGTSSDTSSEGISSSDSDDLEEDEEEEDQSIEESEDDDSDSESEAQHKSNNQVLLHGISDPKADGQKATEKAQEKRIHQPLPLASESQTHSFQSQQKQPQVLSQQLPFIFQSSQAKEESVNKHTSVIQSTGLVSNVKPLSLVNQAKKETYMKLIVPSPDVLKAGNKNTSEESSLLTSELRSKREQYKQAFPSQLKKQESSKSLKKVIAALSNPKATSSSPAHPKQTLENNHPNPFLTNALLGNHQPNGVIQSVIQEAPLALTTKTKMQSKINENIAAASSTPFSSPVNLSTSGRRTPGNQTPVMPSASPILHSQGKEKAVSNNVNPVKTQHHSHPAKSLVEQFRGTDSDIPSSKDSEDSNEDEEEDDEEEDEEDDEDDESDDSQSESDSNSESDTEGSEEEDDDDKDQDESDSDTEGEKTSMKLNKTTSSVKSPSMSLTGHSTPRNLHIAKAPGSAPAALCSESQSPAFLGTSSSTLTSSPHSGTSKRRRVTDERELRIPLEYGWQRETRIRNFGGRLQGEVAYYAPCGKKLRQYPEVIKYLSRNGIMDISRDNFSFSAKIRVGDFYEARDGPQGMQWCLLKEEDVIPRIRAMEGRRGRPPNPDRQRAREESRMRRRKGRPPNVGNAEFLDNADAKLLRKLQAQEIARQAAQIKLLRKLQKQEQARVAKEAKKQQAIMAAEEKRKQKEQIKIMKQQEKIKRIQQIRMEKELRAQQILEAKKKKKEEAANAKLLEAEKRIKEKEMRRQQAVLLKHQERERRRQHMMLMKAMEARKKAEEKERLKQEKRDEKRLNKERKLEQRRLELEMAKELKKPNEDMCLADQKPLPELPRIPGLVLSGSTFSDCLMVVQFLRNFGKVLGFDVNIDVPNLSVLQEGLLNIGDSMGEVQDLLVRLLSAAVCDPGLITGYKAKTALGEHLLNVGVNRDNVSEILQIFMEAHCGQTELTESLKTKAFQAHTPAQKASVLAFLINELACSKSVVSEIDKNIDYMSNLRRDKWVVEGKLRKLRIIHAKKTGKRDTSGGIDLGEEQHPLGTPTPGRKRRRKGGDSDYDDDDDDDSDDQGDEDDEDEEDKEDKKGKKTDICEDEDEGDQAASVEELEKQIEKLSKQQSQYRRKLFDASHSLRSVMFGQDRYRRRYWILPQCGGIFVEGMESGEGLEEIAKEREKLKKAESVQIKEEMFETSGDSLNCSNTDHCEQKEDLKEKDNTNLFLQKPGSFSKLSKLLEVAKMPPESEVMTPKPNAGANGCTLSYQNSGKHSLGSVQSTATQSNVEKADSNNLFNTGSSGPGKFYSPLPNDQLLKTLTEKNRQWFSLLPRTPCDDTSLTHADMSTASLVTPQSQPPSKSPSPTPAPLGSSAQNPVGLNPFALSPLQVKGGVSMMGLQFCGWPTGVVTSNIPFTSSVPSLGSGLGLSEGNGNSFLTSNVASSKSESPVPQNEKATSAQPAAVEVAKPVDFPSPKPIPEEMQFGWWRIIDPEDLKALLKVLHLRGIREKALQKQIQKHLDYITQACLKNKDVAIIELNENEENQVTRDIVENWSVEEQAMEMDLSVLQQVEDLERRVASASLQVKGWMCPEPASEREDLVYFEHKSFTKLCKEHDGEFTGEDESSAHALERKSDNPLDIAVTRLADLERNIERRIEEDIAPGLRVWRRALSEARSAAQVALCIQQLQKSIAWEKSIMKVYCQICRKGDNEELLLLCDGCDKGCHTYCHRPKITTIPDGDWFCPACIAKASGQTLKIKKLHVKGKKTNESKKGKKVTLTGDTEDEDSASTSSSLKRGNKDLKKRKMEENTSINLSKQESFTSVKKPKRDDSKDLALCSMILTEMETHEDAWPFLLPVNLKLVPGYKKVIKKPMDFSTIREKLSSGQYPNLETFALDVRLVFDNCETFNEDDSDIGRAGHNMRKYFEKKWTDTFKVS", "assay": "qHTS Assay for Inhibitors of BAZ2B; further: nearly all actives have a fitted effect of over 60% in size", "details": "AlphaScreen BAZ2B-H3K14Ac peptide displacement; activity change, negative = inhibition: at 114 µM (top of the series)", "method_in_brief": "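Protein-peptide AlphaScreen: BAZ2B 50 nM, b-H3K14Ac 50 nM, 1x PBS pH 7.4 + 0.01% Tween-20. Preincubation 30 min RT; cpd 30 min RT (top 110 uM); beads 20 min RT, light-protected.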", "values": [
      {"smiles": "CC1CCN(c2ccc(S(=O)(=O)NC3=NCCCCC3)cc2[N+](=O)[O-])CC1", "Potency": "inconclusive: 50.1 µM [inhibitor, partial curve]"},
      {"smiles": "CCCN1C(=O)C(Cc2nc3ccccc3c(=O)n2-c2ccc(OC)cc2)c2cc(C)ccc21", "note": "(stereo unspecified)", "Potency": "inconclusive: 35.5 µM [inhibitor, full curve]"},
      {"smiles": "Cc1cc(NCc2ccccn2)ccc1Br", "Potency": "active: 50.1 µM"},
      {"smiles": "Cc1cnc(NC(=O)C2COc3ccccc3O2)s1", "note": "(stereo unspecified)", "Potency": "inconclusive: 89.1 µM [inhibitor, single point]"},
      {"smiles": "CC(=O)C1=C(S(=O)(=O)c2ccc(C)cc2)CS(=O)(=O)C1", "Potency": "inconclusive: 89.1 µM [inhibitor, single point]"},
      {"smiles": "CC(/C=C1\\SC(=S)N(NC(=O)c2ccc(O)cc2)C1=O)=C\\c1ccccc1", "Potency": "active: 31.6 µM"},
      {"smiles": "CCOC(=O)Nc1ccc2c(c1)N(C(=O)CN1CCN3CCCC3C1)c1ccccc1CC2", "note": "(stereo unspecified)", "Potency": "active: 70.8 µM"},
      {"smiles": "Cc1c(NS(=O)(=O)c2cc(C(=O)NCc3ccco3)cc(Cl)c2Cl)c(=O)n(-c2ccccc2)n1C", "Potency": "inconclusive: 89.1 µM [inhibitor, single point]"},
      {"smiles": "CC(C)c1ccc(N2CCN(C(=O)c3ccccc3NC(=O)/C=C(\\C(=O)O)c3ccccc3)CC2)cc1", "Potency": "inconclusive: 79.4 µM [inhibitor, single point]"},
      {"smiles": "Cc1ccc(OCCCCNC2CCCCC2)c(C)c1", "Potency": "active: 79.4 µM"},
      {"smiles": "Cc1cnc(C(=O)OCC(=O)Nc2sc3c(c2C#N)CCC3)cn1", "Potency": "inconclusive: 89.1 µM [inhibitor, single point]"},
      {"smiles": "COc1ccc(C(=O)Sc2nncc3ccccc23)cc1", "Potency": "active: 70.8 µM"},
      {"smiles": "Cc1ccc2c(c1)C(c1ccccc1)N(C(=O)c1ccccc1[N+](=O)[O-])CC(=O)N2", "note": "(stereo unspecified)", "activity change, negative = inhibition": "inactive: -38%"},
      {"smiles": "COc1cc(C(=O)CCN2CCC(c3ccccc3)C2)cc(OC)c1OC", "note": "(stereo unspecified)", "activity change, negative = inhibition": "inactive: -33.3%"},
      {"smiles": "CCOc1cc(/C=C2\\N=C(SCC)SC2=O)cc([N+](=O)[O-])c1OC(C)=O", "Potency": "active: 12.6 µM"},
      {"smiles": "Cc1ccc(C(C)C)c(OCC(=O)NNC(=O)CC2OC(=O)c3ccccc32)c1", "note": "(stereo unspecified)", "Potency": "inconclusive: 89.1 µM [inhibitor, single point]"},
      {"smiles": "CCOCCCNC(=O)C(c1ccc(OC)cc1)N(Cc1ccc2c(c1)OCO2)C(=O)c1cnccn1", "note": "(stereo unspecified)", "Potency": "inconclusive: 100 µM [inhibitor, single point]"},
      {"smiles": "Cc1cc2cc(CN(CC3CCCO3)C(=S)NCc3ccco3)c(=O)[nH]c2cc1C", "note": "(stereo unspecified)", "Potency": "inconclusive: 50.1 µM [inhibitor, partial curve]"},
      {"smiles": "O=C(CN1C(=O)/C(=C2\\SC(=S)N(CCS(=O)(=O)O)C2=O)c2ccccc21)Nc1cccc(Br)c1", "Potency": "active: 8.91 µM"},
      {"smiles": "COc1cccc(/C=N/Nc2ccc([N+](=O)[O-])cn2)c1O", "Potency": "active: 39.8 µM"},
      {"smiles": "COc1cccc(-c2nc(SCC(=O)Nc3ccc4c(c3)OCCO4)c(-c3ccc(C)cc3)[nH]2)c1", "Potency": "inconclusive: 44.7 µM [inhibitor, partial curve]"},
      {"smiles": "COc1cc(OC)cc(N(C(=O)c2snc(C(N)=O)c2N)C(C(=O)NCC2CCCO2)c2ccc(C)o2)c1", "note": "(stereo unspecified)", "Potency": "inconclusive: 56.2 µM [inhibitor, partial curve, poor fit]"},
      {"smiles": "COc1ccccc1C(=O)Nc1ccc(S(=O)(=O)Nc2ncccn2)cc1", "activity change, negative = inhibition": "inactive: 0.28%"},
      {"smiles": "Cn1cccc1/C=N/n1c(-c2ccc(Cl)cc2Cl)n[nH]c1=S", "Potency": "active: 44.7 µM"},
      {"smiles": "O=C(CS(=O)(=O)c1cccc(C(F)(F)F)c1)Nc1ccccc1Cl", "activity change, negative = inhibition": "inactive: -1.52%"},
      {"smiles": "CCC(C)(C)NC(=O)CCn1c(-c2ccccc2)cc(C(C)=O)c1C", "Potency": "active: 50.1 µM"},
      {"smiles": "Cc1c(Cl)cccc1NC(=O)C1CCN(c2nc3ccccc3[nH]2)CC1", "activity change, negative = inhibition": "inactive: -12.1%"},
      {"smiles": "CC(=O)c1ccc(S(=O)(=O)N2CCN(C(=O)CSc3ccc(C)c(C)c3)CC2)cc1", "activity change, negative = inhibition": "inactive: 0.283%"},
      {"smiles": "COc1ccc(C(Nc2ccccn2)c2oc(CO)cc(=O)c2O)cc1", "note": "(stereo unspecified)", "Potency": "inconclusive: 89.1 µM [inhibitor, single point]"},
      {"smiles": "CCC(C)NCCCCOc1ccc(C)cc1[N+](=O)[O-]", "note": "(stereo unspecified)", "Potency": "active: 44.7 µM"},
      {"smiles": "CCCOc1cc(C)c(S(=O)(=O)n2nnc3ccccc32)cc1C", "Potency": "inconclusive: 89.1 µM [inhibitor, single point]"},
      {"smiles": "COc1ccc(OC)c(/C=N/Nc2nc(C)cc(=O)[nH]2)c1", "Potency": "active: 50.1 µM"},
      {"smiles": "CCN1C=C(Cc2cccs2)C2=C(C1)C(c1cccs1)C(C#N)=C(N)O2", "note": "(stereo unspecified)", "Potency": "active: 35.5 µM"},
      {"smiles": "COc1ccc(-n2c(Cc3cccn3C)nnc2SCC(=O)Nc2ccc(C(C)=O)cc2)cc1", "Potency": "inconclusive: 79.4 µM [inhibitor, single point]"},
      {"smiles": "CNC(=S)N/N=C/c1c(Cl)cccc1Cl", "activity change, negative = inhibition": "inactive: 5.86%"},
      {"smiles": "COc1cc(C2Nc3ccccc3-c3nnc(SCc4ccc(C)cc4)nc3O2)cc(OC)c1O", "note": "(stereo unspecified)", "Potency": "inconclusive: 79.4 µM [inhibitor, single point]"},
      {"smiles": "Cc1nn(C(=O)c2ccoc2C)c(N)c1-c1ccccc1", "Potency": "inconclusive: 50.1 µM [inhibitor, partial curve]"},
      {"smiles": "CCN1CCN(c2ccc(S(=O)(=O)N3CCCCC3)cc2NC(=O)/C=C/c2ccc(OC)c(OC)c2)CC1", "Potency": "inconclusive: 79.4 µM [inhibitor, single point]"},
      {"smiles": "O=C(c1ccccc1)c1cc2c(cc1[N+](=O)[O-])OCCO2", "Potency": "inconclusive: 79.4 µM [inhibitor, single point]"},
      {"smiles": "Cc1ccnc(-n2c(C)cc(/C=N/NC(=O)COc3cccc4cccnc34)c2C)c1", "Potency": "inconclusive: 56.2 µM [inhibitor, partial curve]"},
      {"smiles": "CCc1ccc(C2c3c(oc4cc(C)c(C)cc4c3=O)C(=O)N2c2nc(C)c(C(=O)OC)s2)cc1", "note": "(stereo unspecified)", "Potency": "inconclusive: 89.1 µM [inhibitor, single point]"},
      {"smiles": "Cn1c(=O)c2cc(S(=O)(=O)N3CCOCC3)ccc2n(C)c1=O", "activity change, negative = inhibition": "inactive: 22.1%"},
      {"smiles": "CC(CS(=O)(=O)c1ccc2c(c1)NC(=O)CS2)C(=O)NCc1ccccc1Cl", "note": "(stereo unspecified)", "Potency": "active: 14.1 µM"},
      {"smiles": "S=c1[nH]c2ccc3ccccc3c2[nH]1", "Potency": "inconclusive: 79.4 µM [inhibitor, single point]"},
      {"smiles": "CCn1cc(S(=O)(=O)c2ccc(C)cc2)[nH]c1=O", "activity change, negative = inhibition": "inactive: -38.4%"},
      {"smiles": "Cc1cc(NC(=O)c2cccn2-c2nnc(N3CCCCC3)s2)ccc1Br", "Potency": "active: 70.8 µM"}
    ]}
  ]
}
